# Some of the results follow.
# B1: ClecSol-Fc (Cryptosporidium parvum) (protein)
# chain: CPEGWISNGEKTRCFKLVTFDRPRTFSHGFKACNDLGGTEVETRRRNGSKETNEYPVTLASVYKLSDEEAIRRTLVEQGDIHKTANGCFVGLRKYAFFRYPPGWYWIDSGSPVSVRDSEINWTSSYNASWLLRFKFPFEKCGFFDIGGLGRRPCWLIDSELSCAVCGTVAYDSGGLNPNKYSELIKQTDEIISKEPKLDLPGYNNLNCTDAWENNLSVGLCQNVSNILDSAWSSYQSSLNFPSINFNWKEDSTNEGGDQVYHNSYLDLPRYKQKKTFYWDQDPGTIPALSDEMKLIGLSAQPTYHPLDRSSSGSFESDSTESGRANEERNDTLEEMIYKQSSDSIEDILVPVTKPIFSDYSSIGRNSGVEEVYSSNVSTISSKGVVFPNTTTSSDNDFTKNNPANSSKHTSTSTTTNTTTTTTRTTTTTTTTTTTTTTTTTTTTETTTTKKSTTATKNTTTT
# Columns and labels:
# Experiment in all cases: glycan array binding signal (z-score within array); higher = stronger binding
# Settings in all cases: glycan notation: IUPAC condensed, linker removed
# [1] = molecular target: GlcNAc(b1-2)Gal(b1-3)GalNAc
# How it was run: (§1)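 Negative Z-scores can be read as non-binding. The Z-score is calculated within each array and then averaged across arrays of one protein sequence at different concentrations or buffers and across linkers. Arrays, 3228 in all, were curated from the Consortium for Functional Glycomics database and kept only where the protein sequence was available.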
# [2] = molecular target: GlcNAc(b1-2)Man(a1-3)[GlcNAc(b1-2)Man(a1-6)]Man(b1-4)GlcNAc(b1-4)GlcNAc
# How it was run: as §1
# [3] = molecular target: GlcNAc(b1-2)Man(a1-3)[GlcNAc(b1-2)Man(a1-6)]Man(b1-4)GlcNAc(b1-4)[Fuc(a1-6)]GlcNAc
# How it was run: as §1
# [4] = molecular target: GlcNAc(b1-2)Man(a1-3)[GlcNAc(b1-4)][GlcNAc(b1-2)Man(a1-6)]Man(b1-4)GlcNAc(b1-4)GlcNAc
# How it was run: as §1
# [5] = molecular target: GlcNAc(b1-2)Man(a1-3)[GlcNAc(b1-4)][GlcNAc(b1-2)Man(a1-6)]Man(b1-4)GlcNAc(b1-4)[Fuc(a1-6)]GlcNAc
# How it was run: as §1
# [6] = molecular target: GlcNAc(b1-2)[GlcNAc(b1-4)]Man(a1-3)[GlcNAc(b1-2)Man(a1-6)]Man(b1-4)GlcNAc(b1-4)GlcNAc
# How it was run: as §1
# [7] = molecular target: GlcNAc(b1-2)[GlcNAc(b1-4)]Man(a1-3)[GlcNAc(b1-4)][GlcNAc(b1-2)Man(a1-6)]Man(b1-4)GlcNAc(b1-4)GlcNAc
# How it was run: as §1
# [8] = molecular target: GlcNAc(b1-2)[GlcNAc(b1-4)]Man(a1-3)[GlcNAc(b1-4)][GlcNAc(b1-2)[GlcNAc(b1-6)]Man(a1-6)]Man(b1-4)GlcNAc(b1-4)GlcNAc
# How it was run: as §1
# [9] = molecular target: GlcNAc(b1-2)[GlcNAc(b1-4)]Man(a1-3)[GlcNAc(b1-4)][GlcNAc(b1-2)[GlcNAc(b1-6)]Man(a1-6)]Man(b1-4)GlcNAc(b1-4)[Fuc(a1-6)]GlcNAc
# How it was run: as §1
# [10] = molecular target: GlcNAc(b1-2)[GlcNAc(b1-6)]Man(a1-6)[GlcNAc(b1-2)Man(a1-3)]Man(b1-4)GlcNAc(b1-4)GlcNAc
# How it was run: as §1
# [11] = molecular target: GlcNAc(b1-2)[GlcNAc(b1-6)]Man(a1-6)[GlcNAc(b1-2)Man(a1-3)]Man(b1-4)GlcNAc(b1-4)[Fuc(a1-6)]GlcNAc
# How it was run: as §1
# [12] = molecular target: GlcNAc(b1-2)[GlcNAc(b1-6)]Man(a1-6)[GlcNAc(b1-4)][GlcNAc(b1-2)Man(a1-3)]Man(b1-4)GlcNAc(b1-4)GlcNAc
# How it was run: as §1
# [13] = molecular target: GlcNAc(b1-3)Fuc
# How it was run: as §1
# [14] = molecular target: GlcNAc(b1-3)Gal
# How it was run: as §1
# [15] = molecular target: GlcNAc(b1-3)Gal(b1-3)GalNAc
# How it was run: as §1
# [16] = molecular target: GlcNAc(b1-3)Gal(b1-4)Glc
# How it was run: as §1
# [17] = molecular target: GlcNAc(b1-3)Gal(b1-4)GlcNAc
# How it was run: as §1
# [18] = molecular target: GlcNAc(b1-3)Gal(b1-4)GlcNAc(b1-2)Man(a1-3)[GlcNAc(b1-3)Gal(b1-4)GlcNAc(b1-2)Man(a1-6)]Man(b1-4)GlcNAc(b1-4)GlcNAc
# How it was run: as §1
# [19] = molecular target: GlcNAc(b1-3)Gal(b1-4)GlcNAc(b1-2)Man(a1-3)[GlcNAc(b1-3)Gal(b1-4)GlcNAc(b1-2)Man(a1-6)]Man(b1-4)GlcNAc(b1-4)[Fuc(a1-6)]GlcNAc
# How it was run: as §1
# [20] = molecular target: GlcNAc(b1-3)Gal(b1-4)GlcNAc(b1-2)[GlcNAc(b1-3)Gal(b1-4)GlcNAc(b1-6)]Man(a1-6)[GlcNAc(b1-3)Gal(b1-4)GlcNAc(b1-2)Man(a1-3)]Man(b1-4)GlcNAc(b1-4)GlcNAc
# How it was run: as §1
# [21] = molecular target: GlcNAc(b1-3)Gal(b1-4)GlcNAc(b1-3)Gal(b1-4)GlcNAc
# How it was run: as §1
# [22] = molecular target: GlcNAc(b1-3)Gal(b1-4)GlcNAc(b1-3)Gal(b1-4)GlcNAc(b1-2)Man(a1-3)[GlcNAc(b1-3)Gal(b1-4)GlcNAc(b1-3)Gal(b1-4)GlcNAc(b1-2)Man(a1-6)]Man(b1-4)GlcNAc(b1-4)GlcNAc
# How it was run: as §1
# [23] = molecular target: GlcNAc(b1-3)Gal(b1-4)GlcNAc(b1-3)Gal(b1-4)GlcNAc(b1-2)Man(a1-3)[GlcNAc(b1-3)Gal(b1-4)GlcNAc(b1-3)Gal(b1-4)GlcNAc(b1-2)Man(a1-6)]Man(b1-4)GlcNAc(b1-4)[Fuc(a1-6)]GlcNAc
# How it was run: as §1
# [24] = molecular target: GlcNAc(b1-3)Gal(b1-4)GlcNAc(b1-3)Gal(b1-4)GlcNAc(b1-2)[GlcNAc(b1-3)Gal(b1-4)GlcNAc(b1-3)Gal(b1-4)GlcNAc(b1-6)]Man(a1-6)[GlcNAc(b1-3)Gal(b1-4)GlcNAc(b1-3)Gal(b1-4)GlcNAc(b1-2)Man(a1-3)]Man(b1-4)GlcNAc(b1-4)[Fuc(a1-6)]GlcNAc
# How it was run: as §1
# [25] = molecular target: GlcNAc(b1-3)Gal(b1-4)GlcNAc(b1-3)Gal(b1-4)GlcNAc(b1-3)Gal(b1-4)GlcNAc(b1-2)Man(a1-3)[GlcNAc(b1-3)Gal(b1-4)GlcNAc(b1-3)Gal(b1-4)GlcNAc(b1-3)Gal(b1-4)GlcNAc(b1-2)Man(a1-6)]Man(b1-4)GlcNAc(b1-4)GlcNAc
# How it was run: as §1
# [26] = molecular target: GlcNAc(b1-3)Gal(b1-4)GlcNAc(b1-3)Gal(b1-4)GlcNAc(b1-3)Gal(b1-4)GlcNAc(b1-2)Man(a1-3)[GlcNAc(b1-3)Gal(b1-4)GlcNAc(b1-3)Gal(b1-4)GlcNAc(b1-3)Gal(b1-4)GlcNAc(b1-2)Man(a1-6)]Man(b1-4)GlcNAc(b1-4)[Fuc(a1-6)]GlcNAc
# How it was run: as §1
# [27] = molecular target: GlcNAc(b1-3)Gal(b1-4)GlcNAc(b1-3)Gal(b1-4)GlcNAc(b1-3)Gal(b1-4)GlcNAc(b1-2)[GlcNAc(b1-3)Gal(b1-4)GlcNAc(b1-3)Gal(b1-4)GlcNAc(b1-3)Gal(b1-4)GlcNAc(b1-6)]Man(a1-6)[GlcNAc(b1-3)Gal(b1-4)GlcNAc(b1-3)Gal(b1-4)GlcNAc(b1-3)Gal(b1-4)GlcNAc(b1-2)Man(a1-3)]Man(b1-4)GlcNAc(b1-4)[Fuc(a1-6)]GlcNAc
# How it was run: as §1
# [28] = molecular target: GlcNAc(b1-3)Gal(b1-4)GlcNAc(b1-3)Gal(b1-4)GlcNAc(b1-3)Gal(b1-4)GlcNAc(b1-3)Gal(b1-4)GlcNAc(b1-2)Man(a1-3)[GlcNAc(b1-3)Gal(b1-4)GlcNAc(b1-3)Gal(b1-4)GlcNAc(b1-3)Gal(b1-4)GlcNAc(b1-3)Gal(b1-4)GlcNAc(b1-2)Man(a1-6)]Man(b1-4)GlcNAc(b1-4)GlcNAc
# How it was run: as §1
# [29] = molecular target: GlcNAc(b1-3)Gal(b1-4)GlcNAc(b1-3)Gal(b1-4)GlcNAc(b1-3)Gal(b1-4)GlcNAc(b1-3)Gal(b1-4)GlcNAc(b1-2)Man(a1-3)[GlcNAc(b1-3)Gal(b1-4)GlcNAc(b1-3)Gal(b1-4)GlcNAc(b1-3)Gal(b1-4)GlcNAc(b1-3)Gal(b1-4)GlcNAc(b1-2)Man(a1-6)]Man(b1-4)GlcNAc(b1-4)[Fuc(a1-6)]GlcNAc
# How it was run: as §1
# [30] = molecular target: GlcNAc(b1-3)Gal(b1-4)GlcNAc(b1-3)Gal(b1-4)GlcNAc(b1-3)Gal(b1-4)GlcNAc(b1-3)Gal(b1-4)GlcNAc(b1-2)[GlcNAc(b1-3)Gal(b1-4)GlcNAc(b1-3)Gal(b1-4)GlcNAc(b1-3)Gal(b1-4)GlcNAc(b1-3)Gal(b1-4)GlcNAc(b1-6)]Man(a1-6)[GlcNAc(b1-3)Gal(b1-4)GlcNAc(b1-3)Gal(b1-4)GlcNAc(b1-3)Gal(b1-4)GlcNAc(b1-3)Gal(b1-4)GlcNAc(b1-2)Man(a1-3)]Man(b1-4)GlcNAc(b1-4)[Fuc(a1-6)]GlcNAc
# How it was run: as §1
# [31] = molecular target: GlcNAc(b1-3)Gal(b1-4)GlcNAc(b1-3)Gal(b1-4)GlcNAc(b1-3)GalNAc
# How it was run: as §1
# [32] = molecular target: GlcNAc(b1-3)Gal(b1-4)GlcNAc(b1-3)GalNAc
# How it was run: as §1
# [33] = molecular target: GlcNAc(b1-3)Gal(b1-4)GlcNAc(b1-3)[GlcNAc(b1-3)Gal(b1-4)GlcNAc(b1-3)]GalNAc
# How it was run: as §1
# [34] = molecular target: GlcNAc(b1-3)Gal(b1-4)GlcNAc(b1-6)[Gal(b1-3)]GalNAc
# How it was run: as §1
# [35] = molecular target: GlcNAc(b1-3)Gal(b1-4)GlcNAc(b1-6)[GlcNAc(b1-3)Gal(b1-3)]GalNAc
# How it was run: as §1
# [36] = molecular target: GlcNAc(b1-3)Gal(b1-4)GlcNAc(b1-6)[GlcNAc(b1-3)]Gal(b1-4)GlcNAc
# How it was run: as §1
# [37] = molecular target: GlcNAc(b1-3)GalNAc
# How it was run: as §1
binder,measurement,setting,value
B1,glycan array binding signal (z-score),[1],-0.057
same,glycan array binding signal (z-score),[2],-0.081
same,glycan array binding signal (z-score),[3],-0.096
same,glycan array binding signal (z-score),[4],0.018
same,glycan array binding signal (z-score),[5],-0.114
same,glycan array binding signal (z-score),[6],0.283
same,glycan array binding signal (z-score),[7],-0.044
same,glycan array binding signal (z-score),[8],-0.222
same,glycan array binding signal (z-score),[9],-0.191
same,glycan array binding signal (z-score),[10],-0.117
same,glycan array binding signal (z-score),[11],0.082
same,glycan array binding signal (z-score),[12],-0.202
same,glycan array binding signal (z-score),[13],0.075
same,glycan array binding signal (z-score),[14],-0.151
same,glycan array binding signal (z-score),[15],0.006
same,glycan array binding signal (z-score),[16],0.02
same,glycan array binding signal (z-score),[17],-0.088
same,glycan array binding signal (z-score),[18],-0.005
same,glycan array binding signal (z-score),[19],0.693
same,glycan array binding signal (z-score),[20],-0.125
same,glycan array binding signal (z-score),[21],-0.107
same,glycan array binding signal (z-score),[22],0.047
same,glycan array binding signal (z-score),[23],-0.079
same,glycan array binding signal (z-score),[24],0.104
same,glycan array binding signal (z-score),[25],0.082
same,glycan array binding signal (z-score),[26],0.057
same,glycan array binding signal (z-score),[27],-0.077
same,glycan array binding signal (z-score),[28],-0.101
same,glycan array binding signal (z-score),[29],0.18
same,glycan array binding signal (z-score),[30],0.166
same,glycan array binding signal (z-score),[31],0.074
same,glycan array binding signal (z-score),[32],-0.187
same,glycan array binding signal (z-score),[33],0.069
same,glycan array binding signal (z-score),[34],-0.215
same,glycan array binding signal (z-score),[35],-0.115
same,glycan array binding signal (z-score),[36],-0.105
same,glycan array binding signal (z-score),[37],-0.143
